{"source": "paper PMC4336329", "about": "(PLoS ONE, 2015)", "note": "Screen size: about 310,000 compounds; about 14,000 (4.5%) showed an effect of 50% or more. Effects have a minus sign here. Some of the results follow.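 Note: peak tail current of the secondary pulse compared with the same well before compound.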"}
{"molecular_target": "human ether-à-go-go-related gene (hERG) potassium channel (human, UniProt Q12809)", "sequence (Q12809 whole entry, looked up)": "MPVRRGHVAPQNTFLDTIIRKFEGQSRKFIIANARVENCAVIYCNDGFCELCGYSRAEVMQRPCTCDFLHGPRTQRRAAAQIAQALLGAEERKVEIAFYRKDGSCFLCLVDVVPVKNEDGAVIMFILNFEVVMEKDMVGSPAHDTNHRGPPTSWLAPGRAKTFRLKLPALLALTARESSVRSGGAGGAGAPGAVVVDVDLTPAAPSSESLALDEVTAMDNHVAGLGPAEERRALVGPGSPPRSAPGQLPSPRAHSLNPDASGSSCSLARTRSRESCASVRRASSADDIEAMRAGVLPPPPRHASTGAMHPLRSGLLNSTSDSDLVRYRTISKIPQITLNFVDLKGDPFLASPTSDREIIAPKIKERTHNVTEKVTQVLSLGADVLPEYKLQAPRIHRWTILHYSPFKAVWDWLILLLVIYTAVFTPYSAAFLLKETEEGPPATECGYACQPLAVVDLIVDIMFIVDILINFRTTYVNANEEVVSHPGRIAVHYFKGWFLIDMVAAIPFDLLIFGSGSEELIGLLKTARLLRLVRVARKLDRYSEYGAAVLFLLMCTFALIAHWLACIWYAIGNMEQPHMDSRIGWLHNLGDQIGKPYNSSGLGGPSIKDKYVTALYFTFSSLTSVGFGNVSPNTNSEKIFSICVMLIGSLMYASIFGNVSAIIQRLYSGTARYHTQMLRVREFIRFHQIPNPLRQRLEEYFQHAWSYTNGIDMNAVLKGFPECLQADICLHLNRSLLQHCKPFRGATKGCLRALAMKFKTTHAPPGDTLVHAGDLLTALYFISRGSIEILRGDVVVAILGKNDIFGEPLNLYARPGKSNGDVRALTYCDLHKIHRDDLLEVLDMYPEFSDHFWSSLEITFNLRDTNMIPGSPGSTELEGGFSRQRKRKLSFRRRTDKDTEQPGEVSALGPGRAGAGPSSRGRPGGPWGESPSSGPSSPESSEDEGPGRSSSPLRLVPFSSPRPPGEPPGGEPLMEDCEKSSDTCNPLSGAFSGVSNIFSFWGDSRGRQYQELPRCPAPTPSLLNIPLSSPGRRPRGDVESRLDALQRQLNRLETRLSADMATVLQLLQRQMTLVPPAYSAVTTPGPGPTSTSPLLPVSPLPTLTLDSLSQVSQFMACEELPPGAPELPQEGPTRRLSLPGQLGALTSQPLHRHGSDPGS", "test": "primary screen, population patch clamp on CHO cells stably expressing hERG", "units": {"hERG current change (%, negative = inhibition) at 10uM": "%"}}
{"smiles": "CCOc1cc(C2C3=C(CC(C)(C)CC3=O)N(CCOC)C3=C2C(=O)CC(C)(C)C3)ccc1O", "hERG current change (%, negative = inhibition) at 10uM": -3.99}
{"smiles": "COc1cccc(C(=O)NNc2c3ccccc3nc3ccccc23)c1", "hERG current change (%, negative = inhibition) at 10uM": -26}
{"smiles": "CC(=O)c1ccc(NC(=O)CCCN2C(=O)/C(=C/C(C)=C/c3ccccc3)SC2=S)cc1", "hERG current change (%, negative = inhibition) at 10uM": 19.2}
{"smiles": "O=C(N/N=C/c1ccc(OC(=O)c2ccco2)cc1)c1ccccn1", "hERG current change (%, negative = inhibition) at 10uM": 10}
{"smiles": "CCN(c1ccccc1)S(=O)(=O)c1ccc(Cl)c(C(=O)OCC(=O)NC(=O)C(C)C)c1", "hERG current change (%, negative = inhibition) at 10uM": 5.92}
{"smiles": "O=C(CCCCn1c(=O)[nH]c2ccccc2c1=O)NCCC1=CCCCC1", "hERG current change (%, negative = inhibition) at 10uM": 9.16}
{"smiles": "CN(CC(=O)NCc1cccs1)CC(=O)Nc1ccc(F)c(F)c1F", "hERG current change (%, negative = inhibition) at 10uM": -21.5}
{"smiles": "CC(Oc1cccc(Cl)c1)c1ccnc2nc(/N=C/N(C)C)nn12", "note": "(stereo not shown)", "hERG current change (%, negative = inhibition) at 10uM": -5.98}
{"smiles": "COc1ccc(CCNS(=O)(=O)c2ccc3c(c2)NC(=O)CO3)cc1OC", "hERG current change (%, negative = inhibition) at 10uM": 12.2}
{"smiles": "CCCCn1c(N)c(N(CCOC)C(=O)c2ccc(C)c(S(=O)(=O)N3CCOCC3)c2)c(=O)[nH]c1=O", "hERG current change (%, negative = inhibition) at 10uM": 1.29}
{"smiles": "Cc1ccc(-c2cn(-c3ccc(OC(F)F)cc3)c3[n+]2CCCCC3)cc1.[Br-]", "hERG current change (%, negative = inhibition) at 10uM": -61.6}
{"smiles": "NC(=O)CSc1nc2scc(-c3ccc(Cl)cc3)c2c(=O)n1Cc1ccccc1", "hERG current change (%, negative = inhibition) at 10uM": 33.1}
{"smiles": "O=C(Nc1cccc(Br)c1)c1ccccc1-c1ccccc1", "hERG current change (%, negative = inhibition) at 10uM": -22}
{"smiles": "O=S(=O)(c1cc(Cl)ccc1Cl)N1CCN(Cc2ccco2)CC1", "hERG current change (%, negative = inhibition) at 10uM": -54.1}
{"smiles": "Cc1cc(C)c(NC(=O)COC(=O)Cc2cccs2)c(C)c1", "hERG current change (%, negative = inhibition) at 10uM": 14.8}
{"smiles": "O=C(Nc1nnc(CSCc2ccc(F)cc2)s1)c1cccc([N+](=O)[O-])c1", "hERG current change (%, negative = inhibition) at 10uM": 17.6}
{"smiles": "CC(=O)c1ccc(NC(=O)C2Cc3ccccc3CN2C(=O)c2ccccc2)cc1", "note": "(stereo not shown)", "hERG current change (%, negative = inhibition) at 10uM": -17.6}
{"smiles": "CCOc1cc2[nH]c(=S)n(CCCN3CCCC3=O)c(=O)c2cc1OCC", "hERG current change (%, negative = inhibition) at 10uM": -23.5}
{"smiles": "COC(=O)c1c(-c2ccccc2)csc1NC(=O)c1c(-c2ccccc2)noc1C", "hERG current change (%, negative = inhibition) at 10uM": -12.8}
{"smiles": "Cc1coc2c1c(C)cc1oc(=O)c(CC(=O)NCCC(=O)O)c(C)c12", "hERG current change (%, negative = inhibition) at 10uM": 20}
{"smiles": "COCc1cc(C)nc(N)c1C#N", "hERG current change (%, negative = inhibition) at 10uM": 13.8}
{"smiles": "Oc1ccc(/C=N/N2CCN(C3c4ccccc4-c4ccccc43)CC2)c(O)c1", "hERG current change (%, negative = inhibition) at 10uM": 11}
{"smiles": "O=C(COC(=O)c1ccc([N+](=O)[O-])cc1Cl)NC(=O)c1ccccc1", "hERG current change (%, negative = inhibition) at 10uM": 6.87}
{"smiles": "O=C(CN1CCCC1)Nc1cc(F)ccc1F", "hERG current change (%, negative = inhibition) at 10uM": -13.3}
{"smiles": "CCC(C(=O)OCC(=O)Nc1cccc(S(=O)(=O)NC2=NCCCCC2)c1)c1ccccc1", "note": "(stereo not shown)", "hERG current change (%, negative = inhibition) at 10uM": 1.92}
{"smiles": "CCC(OC(=O)c1ccco1)C(=O)NC1CCCC1", "note": "(stereo not shown)", "hERG current change (%, negative = inhibition) at 10uM": 11.1}
{"smiles": "CCC1(OC(=O)c2ccccc2)CC(C)N(C)CC1C.Cl", "note": "(stereo not shown)", "hERG current change (%, negative = inhibition) at 10uM": -7.85}
{"smiles": "C[C@]12CC[C@@H](O)C[C@H]1CC[C@@H]1[C@@H]2CC[C@]2(C)C(=O)CC[C@@H]12", "hERG current change (%, negative = inhibition) at 10uM": -3.43}
{"smiles": "COc1ccccc1OCCCC(=O)NC(C)c1ccccc1", "note": "(stereo not shown)", "hERG current change (%, negative = inhibition) at 10uM": -0.417}
{"smiles": "CC(C)CCNC(=O)CCc1nnc2n(CCCOC(C)C)c(=O)c3ccccc3n12", "hERG current change (%, negative = inhibition) at 10uM": -26.7}
{"smiles": "O=C(NNc1ncnc2ccccc12)c1cccc(Cl)c1", "hERG current change (%, negative = inhibition) at 10uM": -17.1}
{"smiles": "COc1cc(NC(=S)NCc2ccc(S(N)(=O)=O)cc2)c(OC)cc1Cl", "hERG current change (%, negative = inhibition) at 10uM": -2.4}
{"smiles": "CC(=O)C1C(c2ccc(Cl)cc2)c2c(n[nH]c2C)CC1(C)O", "note": "(stereo not shown)", "hERG current change (%, negative = inhibition) at 10uM": 33.4}
{"smiles": "CC(C)n1cc(C(=O)N(CC(=O)NC2CCCC2)Cc2ccccc2)cn1", "hERG current change (%, negative = inhibition) at 10uM": -0.857}
{"smiles": "CN(CC(=O)NCCCc1ccccc1)S(=O)(=O)c1ccc(Br)cc1", "hERG current change (%, negative = inhibition) at 10uM": -7.88}
{"smiles": "CCOc1ccccc1N1CCN(C(=O)c2ccccc2OCc2c(C)noc2C)CC1", "hERG current change (%, negative = inhibition) at 10uM": -12.4}
{"smiles": "COC(=O)Nc1ccc(S(=O)(=O)N2CCC(C)CC2)cc1", "hERG current change (%, negative = inhibition) at 10uM": -7.74}
{"smiles": "Cc1ccccc1S(=O)Cc1ccc(C(=O)NC2CCN(Cc3ccccc3)CC2)o1", "note": "(stereo not shown)", "hERG current change (%, negative = inhibition) at 10uM": -10.6}
{"smiles": "CCCc1cc(=O)[nH]c(SCC(=O)Nc2ccccc2C#N)n1", "hERG current change (%, negative = inhibition) at 10uM": 14.5}
{"smiles": "COc1ccc(C(=O)NC23CC4CC(CC(C4)C2)C3)cc1", "hERG current change (%, negative = inhibition) at 10uM": 12.2}
{"smiles": "Cc1cc(C)nc(NC(=O)c2ccccc2O)n1", "hERG current change (%, negative = inhibition) at 10uM": 18.3}
{"smiles": "Cn1nnnc1SCSc1nnnn1C", "hERG current change (%, negative = inhibition) at 10uM": 8.33}
{"smiles": "Cn1c(SCC(=O)c2ccc(F)cc2)nnc1-c1ccccn1", "hERG current change (%, negative = inhibition) at 10uM": 2.15}
{"smiles": "CC1CN(S(=O)(=O)c2ccccc2)CC(C)O1", "note": "(stereo not shown)", "hERG current change (%, negative = inhibition) at 10uM": -8.25}
{"smiles": "COc1cc2c(cc1OC)C(Nc1ccccc1)=NC(C)(C)C2", "hERG current change (%, negative = inhibition) at 10uM": -19}
{"smiles": "Cc1nc(NC(=O)CSc2nnnn2Cc2ccccc2)sc1C", "hERG current change (%, negative = inhibition) at 10uM": -4.31}
{"smiles": "COC(=O)c1cc(=O)[nH]c(SCc2cccc(C)c2)n1", "hERG current change (%, negative = inhibition) at 10uM": 17.2}
{"smiles": "O=C(CSc1nc2ccccc2o1)Nc1ccccc1", "hERG current change (%, negative = inhibition) at 10uM": -1.11}
{"smiles": "O=C(NNC1=NCCC1)c1cccc(S(=O)(=O)N2CCCC2)c1", "hERG current change (%, negative = inhibition) at 10uM": 16.6}
{"smiles": "COc1cccc(C(C(=O)NCc2ccco2)N(C(=O)Cn2nnc3ccccc32)C2CC2)c1OC", "note": "(stereo not shown)", "hERG current change (%, negative = inhibition) at 10uM": -5.46}
{"smiles": "CC(=O)/C(N)=N/Nc1cccc(Cl)c1", "hERG current change (%, negative = inhibition) at 10uM": -0.164}
{"smiles": "COc1ccc(/C=C2\\SC(N)=NC2=O)cc1Cl", "hERG current change (%, negative = inhibition) at 10uM": 9.84}
{"smiles": "COc1cc(OC)cc(C(=O)NC(c2ccccc2)c2ccccc2)c1", "hERG current change (%, negative = inhibition) at 10uM": 9.34}
{"smiles": "Cc1cc(=O)c2n(Cc3ccccc3Cl)nc[n+]2[nH]1.[Cl-]", "hERG current change (%, negative = inhibition) at 10uM": -6.94}
{"smiles": "Cc1ccc(C(=O)n2cnnc2N)cc1", "hERG current change (%, negative = inhibition) at 10uM": -1.12}
{"smiles": "COc1ccc(C(=O)Nc2nc(-c3cccs3)cs2)cc1", "hERG current change (%, negative = inhibition) at 10uM": -9.51}
{"smiles": "CC(C)C/C(=N/O)c1cn(C)c2ccccc12", "hERG current change (%, negative = inhibition) at 10uM": 3.21}
{"smiles": "O=C(CCNC(=O)c1ccc([N+](=O)[O-])cc1)Nc1ccccc1N1CCCCC1", "hERG current change (%, negative = inhibition) at 10uM": -34.9}
